# Reference: the supplement of paper PMC3334620
# In all, about 33,000 sequences were measured (“E-score (-0.5 to 0.5)”: median about -0.04, highest 2% from about 0.36 on). The list shows a part of the results.
# Biological target: T1, Hmlalpha2 (UniProt P0CY09)
# T1 sequence: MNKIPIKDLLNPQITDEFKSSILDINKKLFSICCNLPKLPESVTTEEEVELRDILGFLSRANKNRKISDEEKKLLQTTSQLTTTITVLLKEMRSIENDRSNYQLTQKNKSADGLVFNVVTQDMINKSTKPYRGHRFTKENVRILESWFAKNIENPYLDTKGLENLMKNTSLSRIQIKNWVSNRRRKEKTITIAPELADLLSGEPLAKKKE
# Assay: PBM E-score (8-mer binding enrichment) (E-score (-0.5 to 0.5)); higher = stronger / more preferred TF binding; most listed sequences are background and not binding sites
# Conditions: protein concentration: 200 nM; construct: GST-full length
# Method in brief: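 GST-tagged yeast TFs (full-length or DNA-binding domain) were made by PURExpress in vitro transcription/translation and applied at about 100-200 nM to universal all-10-mer Agilent arrays. The arrays were made double-stranded by primer extension, on fresh or once-stripped slides. Bound protein was detected with fluorescent anti-GST, and scans were normalised with masliner. Each ungapped eight-base word, pooled with its reverse complement, received an E-score (modified Wilcoxon-Mann-Whitney statistic) from the Universal PBM Analysis Suite.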
row,Sequence,PBM E-score
1,ACGTCTCG,0.064
2,GTGGAGTA,0.0189
3,CATTAATA,0.199
4,AGAGTCCC,-0.368
5,ATGTGCAC,0.0166
6,AAGCAGCT,-0.0589
7,CTGCTGCC,-0.231
8,ATCTCTTA,0.0731
9,GGTAGACA,-0.0874
10,GTACATAA,0.377
11,AGGTGAAG,-0.0123
12,TGTCGACA,0.221
13,GCCGCCCC,-0.213
14,AAGGAATT,-0.188
15,ACCGCCAC,-0.0584
16,ATCGGCAA,-0.25
17,ACTGCAGC,-0.186
18,AAAGAGTC,-0.291
19,ATTTACAG,0.269
20,AAGTGTCT,0.0533
21,ACAGATTC,0.157
22,GCACCGCA,-0.215
23,TACCTTCA,0.118
24,AGACGCCA,-0.197
25,GCGATCCA,-0.0023

row,Sequence,PBM E-score
1,AGATATTA,-0.0188
2,CCAGCCAG,-0.308
3,AGGCTATA,-0.0923
4,GGACTGGA,-0.162
5,CTGCATTA,0.0439
6,CCAGAGGC,-0.299
7,TAAGAGTA,0.113
8,CATGATCA,0.17
9,CGACGCCC,-0.089
10,ACCTGGGG,-0.269
11,CCGCTTAA,0.0712
12,CATCAGCC,-0.123
13,CACCGAGG,-0.153
14,AATGAAAC,0.103
15,AACGCGGG,0.188
16,GATCAAGA,0.00593
17,ACCCTGGG,-0.116
18,ACCTCCTG,-0.0659
19,AAACTCGG,-0.0452
20,CAGGTACC,-0.139
21,AGTCTGCG,-0.0616
22,CCTCCTCG,-0.306
23,GAACGGGC,-0.266
24,GAAGCGTC,-0.035
25,ACTACAAC,0.258

row,Sequence,PBM E-score
1,AAAAACGA,0.179
2,TATGGGAA,-0.169
3,CACGCAGA,0.186
4,TCTCCGCA,-0.191
5,AGACCGAT,-0.055
6,CACATGGG,-0.0456
7,AGCATCCC,-0.348
8,AGTGGGTA,-0.0925
9,GTTGGGGA,-0.0189
10,CCTCCCGC,-0.0916
11,ACAGGACC,-0.0846
12,ACTTGTTC,0.202
13,GCGAGACC,-0.0811
14,GCTGACCA,-0.303
15,GAAGAACC,-0.121
16,AATGAATT,0.098
17,GGTATCAA,-0.0124
18,AGCACGAG,-0.00788
19,CGAGAACG,-0.0885
20,ATGTCGCG,0.0866
21,AGGGATCC,-0.382
22,CGGAAAAG,-0.251
23,CCACAACC,0.0478
24,CTAGAGCC,-0.203
25,AACCAGCA,0.00123

row,Sequence,PBM E-score
1,AAGAGAGT,-0.16
2,ATTTTTGC,0.0758
3,GCGTGAGA,-0.129
4,ATTGTCGG,-0.0862
5,AACCTTTC,-0.149
6,GCGATTAC,0.275
7,CATCCTGC,-0.183
8,CCACTCAC,-0.156
9,GACCGCGA,-0.265
10,CCCCCCCA,-0.371
11,ACTGGTGA,-0.189
12,GATGCATA,-0.13
13,CCTTAATA,-0.0606
14,CACTCTCC,-0.064
15,CAAGATAG,-0.0379
16,GGTACAGA,-0.00788
17,AAGCGCGG,-0.0646
18,ATGAGGAA,0.0377
19,CCAAGCGA,-0.145
20,GTATGAGA,0.0381
21,ATAGCAAA,0.0897
22,CATGCGGC,-0.0127
23,GCAAGCCC,-0.0887
24,AGTCACAA,0.158
25,ATACTGCG,-0.0383

row,Sequence,PBM E-score
1,CATGGTCC,-0.0621
2,CCCGACAC,-0.149
3,CAAGTTGG,0.0415
4,ATCCCATA,-0.0474
5,ACGCATCC,-0.125
6,CCTTTTGA,0.0788
7,CAGCGTGG,-0.124
8,ACATAACC,0.222
9,ATTTGGTC,0.0589
10,AACCAACT,0.115
11,GTAGAGAC,0.0602
12,GCTGTTAC,-0.0161
13,AAGTGTGC,-0.0583
14,CACTACCA,0.0358
15,GGTCTAAC,-0.072
16,CATGGAGG,-0.057
17,GCCTGGTA,-0.0262
18,ACCACACG,0.253
19,CTAGCGCC,-0.158
20,AGTGCGCC,-0.169
21,TCGATTAA,0.312
22,AACCCCTT,-0.117
23,CGGCTATA,-0.0106
24,CTCCAAAA,-0.125
25,GACTCGAC,-0.0146

row,Sequence,PBM E-score
1,CTTACCTA,-0.0366
2,CAAGCACC,-0.00603
3,AGTTTCTA,0.0595
4,GCCGAGAA,-0.131
5,CTTTCAGC,-0.137
6,CCTCGTTA,0.194
7,GTCAAATA,0.178
8,GCGGCTTA,-0.112
9,AAATTACA,0.424
10,CGCACTTC,-0.129
11,CTTATATA,0.178
12,AAGATATC,-0.08
13,CAACTAGA,0.0606
14,GAGTAGGA,-0.272
15,CTATTTGC,-0.164
16,GATGATGA,-0.155
17,GTAGCCAC,-0.204
18,CAACGTCC,-0.125
19,AAGATTTG,-0.0746
20,AAGATTGT,0.175
21,ATTACTCC,0.104
22,AGGGGAAA,-0.147
23,AACTGCGC,-0.0259
24,CCGTGACG,-0.012
25,AATTGGCG,-0.0647

row,Sequence,PBM E-score
1,CTATGTTA,0.414
2,CTTCAGAC,-0.102
3,CCGTTTAC,0.259
4,CATGTACA,0.458
5,GATTAGAA,-0.142
6,AATGGTCT,-0.0744
7,ATGACCTC,-0.234
8,AGCATGAA,0.0173
9,CTCGCATC,-0.156
10,ACTCAGCG,-0.113
11,GGGCAAGA,-0.0917
12,CACGGCTC,-0.0568
13,GCGTACAA,0.201
14,ACTATGCG,0.0742
15,GAACCCCA,-0.247
16,CGACTAAC,0.19
17,ATACAACC,0.233
18,ACCGATGA,-0.139
19,ACTTGAAA,0.00903
20,CCCATTCA,-0.214
21,CACGTAGA,0.3
22,ATGGCCGC,-0.0676
